Source: a collection of fitness landscapes (doi:10.1126/science.1257360)
The other results are listed elsewhere or left out.

B1: PhoQ; a variant is named by its letters at X, in order, P23837 (parent)
chain: MKKLLRLFFPLSLRVRFLLATAAVVLVLSLAYGMVALIGYSVSFDKTTFRLLRGESNLFYTLAKWENNKLHVELPENIDKQSPTMTLIYDENGQLLWAQRDVPWLMKMIQPDWLKSNGFHEIEADVNDTSLLLSGDHSIQQQLQEVREDDDDAEMTHSVAVNVYPATSRMPKLTIVVVDTIPVELKSSYMVWSWFIYVLSANLLLVIPLLWVAAWWSLRPIEALAKEVRELEEHNRELLNPATTRELTSLVRNLNRLLKSERERYDKYRTTLTDLTHSLKTPLXXLQXXLRSLRSEKMSVSDAEPVMLEQISRISQQIGYYLHRASMRGGTLLSRELHPVAPLLDNLTSALNKVYQRKGVNISLDISPEISFVGEQNDFVEVMGNVLDNACKYCLEFVEISARQTDEHLYIVVEDDGPGIPLSKREVIFDRGQRVDTLRPGQGVGLAVAREITEQYEGKIVAGESMLGGARMEVIFGRQHSAPKDE

Variants of: B1
Assay: enrichment ratio after two sorts for PhoP signalling (ratio (wild type AVST 3.29)); higher = more functional
Conditions: with PhoP (E. coli)

| Variant | enrichment ratio |
| --- | --- |
| SVRT | ≤ 0.25 |
| RLQY | ≤ 0.25 |
| LSGV | ≤ 0.25 |
| WWMS | ≤ 0.25 |
| LAGT | ≤ 0.25 |
| AHNS | ≤ 0.25 |
| HVMM | ≤ 0.25 |
| HNLP | ≤ 0.25 |
| DALP | ≤ 0.25 |
| NHPG | ≤ 0.25 |
| MSDC | ≤ 0.25 |
| MAGY | 3.31 |
| MLFI | ≤ 0.25 |
| QLAE | ≤ 0.25 |
| YMCN | ≤ 0.25 |
| HFWL | ≤ 0.25 |
| FLFC | ≤ 0.25 |
| GKII | ≤ 0.25 |
| VHWY | ≤ 0.25 |
| KNPK | ≤ 0.25 |
| SELG | 25.3 |
| FDGC | ≤ 0.25 |
| QANS | ≤ 0.25 |
| NAWE | ≤ 0.25 |

| Variant | enrichment ratio |
| --- | --- |
| VTHQ | ≤ 0.25 |
| LPFN | ≤ 0.25 |
| NDFQ | ≤ 0.25 |
| RRYV | ≤ 0.25 |
| PMMP | ≤ 0.25 |
| DEII | ≤ 0.25 |
| VTFL | ≤ 0.25 |
| PMSD | ≤ 0.25 |
| MCTN | ≤ 0.25 |
| DNPY | ≤ 0.25 |
| FCDE | ≤ 0.25 |
| KFHY | ≤ 0.25 |
| TLGW | ≤ 0.25 |
| IKDC | ≤ 0.25 |
| WFVT | ≤ 0.25 |
| LGVE | ≤ 0.25 |
| TIGC | 5.81 |
| DKVA | ≤ 0.25 |
| RTCV | ≤ 0.25 |
| LFMD | ≤ 0.25 |
| FICA | ≤ 0.25 |
| FPQD | ≤ 0.25 |
| HAYA | ≤ 0.25 |
| YCLS | 1.42 |

| Variant | enrichment ratio |
| --- | --- |
| EMLH | ≤ 0.25 |
| PVTC | ≤ 0.25 |
| MDMG | ≤ 0.25 |
| REGR | ≤ 0.25 |
| SAPH | ≤ 0.25 |
| RQFL | ≤ 0.25 |
| TPVF | ≤ 0.25 |
| KFNL | ≤ 0.25 |
| REKV | ≤ 0.25 |
| RPLL | ≤ 0.25 |
| FPGN | ≤ 0.25 |
| YLWR | ≤ 0.25 |
| GARY | ≤ 0.25 |
| NIQP | ≤ 0.25 |
| VDRN | ≤ 0.25 |
| DVAY | ≤ 0.25 |
| YGSC | ≤ 0.25 |
| LQYF | ≤ 0.25 |
| APVD | ≤ 0.25 |
| HPGT | ≤ 0.25 |
| VPYH | ≤ 0.25 |
| DRYL | ≤ 0.25 |
| QKPC | ≤ 0.25 |
| NKWQ | ≤ 0.25 |

| Variant | enrichment ratio |
| --- | --- |
| FPSY | ≤ 0.25 |
| DTDS | ≤ 0.25 |
| PPAG | ≤ 0.25 |
| QPFI | ≤ 0.25 |
| KIPL | ≤ 0.25 |
| GEYR | ≤ 0.25 |
| HMFE | ≤ 0.25 |
| EYQP | ≤ 0.25 |
| ELLY | ≤ 0.25 |
| AHAS | ≤ 0.25 |
| APQF | ≤ 0.25 |
| ERPD | ≤ 0.25 |
| PFCF | ≤ 0.25 |
| TVNF | 2.59 |
| FVFI | ≤ 0.25 |
| MFCR | ≤ 0.25 |
| QNGI | ≤ 0.25 |
| PVAP | ≤ 0.25 |
| MTIG | ≤ 0.25 |
| KVRF | ≤ 0.25 |
| EHMN | ≤ 0.25 |
| RIHW | ≤ 0.25 |
| GRDH | ≤ 0.25 |
| EQII | ≤ 0.25 |

| Variant | enrichment ratio |
| --- | --- |
| WPND | ≤ 0.25 |
| KSWR | ≤ 0.25 |
| WDTF | ≤ 0.25 |
| QGPC | ≤ 0.25 |
| TMMP | ≤ 0.25 |
| HGKH | ≤ 0.25 |
| FNKS | ≤ 0.25 |
| SPWM | ≤ 0.25 |
| RGRQ | ≤ 0.25 |
| NVSA | ≤ 0.25 |
| DIIQ | ≤ 0.25 |
| LNKQ | ≤ 0.25 |
| DNHP | ≤ 0.25 |
| VTWN | ≤ 0.25 |
| VIIM | ≤ 0.25 |
| EPAL | ≤ 0.25 |
| SRRF | ≤ 0.25 |
| ILVG | ≤ 0.25 |
| KKLW | ≤ 0.25 |
| HTHF | ≤ 0.25 |
| TLGR | ≤ 0.25 |
| RNYP | ≤ 0.25 |
| VRRT | ≤ 0.25 |
| DSHM | ≤ 0.25 |

| Variant | enrichment ratio |
| --- | --- |
| FTNV | ≤ 0.25 |
| SWWC | ≤ 0.25 |
| NNYD | ≤ 0.25 |
| QGKV | ≤ 0.25 |
| IYVA | ≤ 0.25 |
| NKAA | ≤ 0.25 |
| FYPA | ≤ 0.25 |
| GGRS | ≤ 0.25 |
| HHKE | ≤ 0.25 |
| FSKW | ≤ 0.25 |
| VLHR | ≤ 0.25 |
| WQFK | ≤ 0.25 |
| TWND | ≤ 0.25 |
| QCWQ | ≤ 0.25 |
| PDLK | ≤ 0.25 |
| TCFL | ≤ 0.25 |
| AAGM | 4.06 |
| TFKS | ≤ 0.25 |
| AQAC | 0.268 |
| PEFY | ≤ 0.25 |
| HGNI | ≤ 0.25 |
| RQRI | ≤ 0.25 |
| YCDY | ≤ 0.25 |
| LNCH | ≤ 0.25 |

| Variant | enrichment ratio |
| --- | --- |
| THTC | 2.02 |
| YWGA | ≤ 0.25 |
| EKLW | ≤ 0.25 |
| MVRW | ≤ 0.25 |
| QREP | ≤ 0.25 |
| MFLP | ≤ 0.25 |
| ILVQ | ≤ 0.25 |
| PLEL | ≤ 0.25 |
| TAAI | 7.96 |
| TREP | ≤ 0.25 |
| YLQV | ≤ 0.25 |
| GWGP | ≤ 0.25 |
| MLSY | ≤ 0.25 |
| LFYM | ≤ 0.25 |
| LPCT | ≤ 0.25 |
| DARD | ≤ 0.25 |
| RWDG | ≤ 0.25 |
| RDNT | ≤ 0.25 |
| QMYP | ≤ 0.25 |
| DFFM | ≤ 0.25 |
| SQWF | ≤ 0.25 |
| DTCT | ≤ 0.25 |
| KEYA | ≤ 0.25 |
| SEPF | ≤ 0.25 |

| Variant | enrichment ratio |
| --- | --- |
| NWSP | ≤ 0.25 |
| SNFQ | ≤ 0.25 |
| RILT | ≤ 0.25 |
| YDCC | ≤ 0.25 |
| TLHF | ≤ 0.25 |
| ASHA | ≤ 0.25 |
| HICC | ≤ 0.25 |
| LMMY | ≤ 0.25 |
| GIHR | ≤ 0.25 |
| SDQL | ≤ 0.25 |
| WFHN | ≤ 0.25 |
| KVLH | ≤ 0.25 |
| YPQC | ≤ 0.25 |
| FRYD | ≤ 0.25 |
| WQIR | ≤ 0.25 |
| RVPM | ≤ 0.25 |
| DHHY | ≤ 0.25 |
| GNDC | ≤ 0.25 |
| MFAI | ≤ 0.25 |
| QYCN | ≤ 0.25 |
| QPAP | ≤ 0.25 |
| QNMV | ≤ 0.25 |
| NQQP | ≤ 0.25 |
| LCNA | ≤ 0.25 |

| Variant | enrichment ratio |
| --- | --- |
| PKTR | ≤ 0.25 |
| SIFH | ≤ 0.25 |
| RFPP | ≤ 0.25 |
| DDHI | ≤ 0.25 |
| RIRQ | ≤ 0.25 |
| HQMH | ≤ 0.25 |
| RLPN | ≤ 0.25 |
| IPMS | ≤ 0.25 |
| NGLH | ≤ 0.25 |
| ANSD | ≤ 0.25 |
| TMYG | ≤ 0.25 |
| NANR | ≤ 0.25 |
| MPYK | ≤ 0.25 |
| EAHK | ≤ 0.25 |
| TGCI | 9.63 |
| YGGD | ≤ 0.25 |
| IIDR | ≤ 0.25 |
| QLSD | ≤ 0.25 |
| LPDF | ≤ 0.25 |
| HMNP | ≤ 0.25 |
| NRVG | ≤ 0.25 |
| VQWA | ≤ 0.25 |
| DVWY | ≤ 0.25 |
| VIIK | ≤ 0.25 |

| Variant | enrichment ratio |
| --- | --- |
| KYIW | ≤ 0.25 |
| PGWE | ≤ 0.25 |
| IGAL | ≤ 0.25 |
| RFSD | ≤ 0.25 |
| VPVG | ≤ 0.25 |
| MHVT | 2.1 |
| KVED | ≤ 0.25 |
| VYTE | ≤ 0.25 |
| YSDI | ≤ 0.25 |
| LSVH | ≤ 0.25 |
| PHQA | ≤ 0.25 |
| GWWS | ≤ 0.25 |
| AWQI | ≤ 0.25 |
| VHVL | ≤ 0.25 |
| RRDK | ≤ 0.25 |
| YHDQ | ≤ 0.25 |
| WSGH | ≤ 0.25 |
| PPLH | ≤ 0.25 |
| RWFP | ≤ 0.25 |
| HDVD | ≤ 0.25 |
| VYPN | ≤ 0.25 |
| GWGT | ≤ 0.25 |
| NYWH | ≤ 0.25 |
| IKDG | ≤ 0.25 |

| Variant | enrichment ratio |
| --- | --- |
| MKSF | 0.322 |
| ERID | ≤ 0.25 |
| NMCW | ≤ 0.25 |
| MFVE | ≤ 0.25 |
| SKLI | 8.76 |
| HNHM | ≤ 0.25 |
| YPRA | ≤ 0.25 |
| AEPP | ≤ 0.25 |
| AHVD | ≤ 0.25 |
| SEYA | 1.86 |
| ALMY | ≤ 0.25 |
| FTGL | ≤ 0.25 |
| SCIP | ≤ 0.25 |
| HRNP | ≤ 0.25 |
| MPIK | ≤ 0.25 |
| YNHF | ≤ 0.25 |
| ACVN | 31.5 |
| ECIN | ≤ 0.25 |
| DWNY | ≤ 0.25 |
| RNCH | ≤ 0.25 |
| MDAH | ≤ 0.25 |
| DGIM | ≤ 0.25 |
| WHPI | ≤ 0.25 |
| YHMA | ≤ 0.25 |

| Variant | enrichment ratio |
| --- | --- |
| VRYQ | ≤ 0.25 |
| DNWS | ≤ 0.25 |
| IMAH | ≤ 0.25 |
| WFCQ | ≤ 0.25 |
| INDP | ≤ 0.25 |
| DHPC | ≤ 0.25 |
| GFHG | ≤ 0.25 |
| FMRF | ≤ 0.25 |
| LGDL | ≤ 0.25 |
| WVRY | ≤ 0.25 |
| HMRR | ≤ 0.25 |
| EVNL | ≤ 0.25 |
| TDTG | 0.585 |
| FGPV | ≤ 0.25 |
| VGYG | ≤ 0.25 |
| ANLN | 8.47 |
| DNLA | ≤ 0.25 |
| HHTY | ≤ 0.25 |
| ERYC | ≤ 0.25 |
| YMCG | ≤ 0.25 |
| HRCL | ≤ 0.25 |
| MMSN | ≤ 0.25 |
| MLGS | ≤ 0.25 |
| FNIP | ≤ 0.25 |

| Variant | enrichment ratio |
| --- | --- |
| TITW | ≤ 0.25 |
| ANRY | ≤ 0.25 |
| DDDW | ≤ 0.25 |
| GNRT | ≤ 0.25 |
| IRYA | ≤ 0.25 |
| VNIH | ≤ 0.25 |
| NDMG | ≤ 0.25 |
| LDHC | ≤ 0.25 |
| RNPT | ≤ 0.25 |
| ELDM | ≤ 0.25 |
| SVMQ | 15.2 |
| YWTP | ≤ 0.25 |
| NLKF | ≤ 0.25 |
| TDCT | 14.8 |
| DENM | ≤ 0.25 |
| PYGW | ≤ 0.25 |
| KLHP | ≤ 0.25 |
| SDEA | ≤ 0.25 |
